This is one part of the list. Single values are uncertain, as repeats are few or missing.
How the values were obtained:
Assay in all cases: cell count relative to DMSO control; melanoma cells; higher = more viable cells
Details in all cases: library dose: low library concentration; 72 h; first compound 0.4 µM
[1] = tested on: WM115
[2] = tested on: WM1716
[3] = tested on: WM1745
[4] = tested on: WM3526
[5] = tested on: WM3619
[6] = tested on: WM451Lu
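Note: cell number obtained by counting DAPI-stained nuclei in high-throughput microscope images with image analysis software, screen run in 1,536-well plates.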

Structure (SMILES)	cell count [1] [%]	cell count [2] [%]	cell count [3] [%]	cell count [4] [%]	cell count [5] [%]	cell count [6] [%]
CCCCCCCCCCCCCCCCCCOP(=O)([O-])OC1CC[N+](C)(C)CC1 [Perifosine] + Clc1ccc(Nc2nnc(Cc3ccncc3)c3ccccc23)cc1 [vatalanib] (partner dose 2 µM)	104	96.5	93.5	95.8	87.9	115
C[C@@H](N)c1ccc(C(=O)Nc2ccnc3[nH]ccc23)cc1 + O=C(O)c1ccc(-c2c[nH]c3ncc(-c4ccccc4)cc23)cc1C1CCCC1 [GSK650394] (partner dose 0.16 µM)	105	68.1	88.4	98.5	99	105
CCCCCCCCCCCCCCCCCCOP(=O)([O-])OC1CC[N+](C)(C)CC1 [Perifosine] + Cc1ccc(Nc2nccc(N(C)c3ccc4c(C)n(C)nc4c3)n2)cc1S(N)(=O)=O [Pazopanib] (partner dose 0.4 µM)	93.6	89.4	97.5	88.6	80.9	90.6
C[C@@H](N)c1ccc(C(=O)Nc2ccnc3[nH]ccc23)cc1 + Cc1cc(N2CCOCC2)cc2[nH]c(-c3c(NC[C@@H](O)c4cccc(Cl)c4)cc[nH]c3=O)nc12 [BMS536924] (partner dose 0.2 µM)	108	66.1	53.3	108	108	81.3
Cn1sc(=O)n(Cc2ccccc2)c1=O + COc1ccc(C2=N[C@@H](c3ccc(Cl)cc3)[C@@H](c3ccc(Cl)cc3)N2C(=O)N2CCNC(=O)C2)c(OC(C)C)c1 [Nutlin-3] (partner dose 0.1 µM)	93.2	100	79.6	98.8	96	85.6
Cn1sc(=O)n(Cc2ccccc2)c1=O + NC1(c2ccc(-c3nc4ccn5c(=O)[nH]nc5c4cc3-c3ccccc3)cc2)CCC1 [MK2206] (partner dose 0.4 µM)	85.7	122	109	85.8	83.4	106
Cn1sc(=O)n(Cc2ccccc2)c1=O + O=C(O)[C@@H]1[O][Sb](=[O])([O][Sb]2(=[O])[O][C@H]([C@H](O)CO)[C@H](O)[C@H](C(=O)O)[O]2)[O][C@H]([C@H](O)CO)[C@@H]1O [stibogluconate] (partner dose 2 µM)	96.1	104	104	102	88.4	95.3
Cn1sc(=O)n(Cc2ccccc2)c1=O + Clc1ccc(Nc2nnc(Cc3ccncc3)c3ccccc23)cc1 [vatalanib] (partner dose 2 µM)	100	97.6	98.9	87.4	87.6	104
CCCCCCCCCCCCCCCCCCOP(=O)([O-])OC1CC[N+](C)(C)CC1 [Perifosine] + C=CCn1c(=O)c2cnc(Nc3ccc(N4CCN(C)CC4)cc3)nc2n1-c1cccc(C(C)(C)O)n1 [MK1775] (partner dose 0.02 µM)	97.6	73.5	90.3	78.7	96.5	84.8
CCCCCCCCCCCCCCCCCCOP(=O)([O-])OC1CC[N+](C)(C)CC1 [Perifosine] + CO[C@@H]1[C@H](N(C)C(=O)c2ccccc2)C[C@H]2O[C@]1(C)n1c3ccccc3c3c4c(c5c6ccccc6n2c5c31)C(=O)NC4 [Midostaurin] (partner dose 0.08 µM)	71	27.5	98.3	90.5	115	98.2
Cn1sc(=O)n(Cc2ccccc2)c1=O + O=S(=O)(c1ccccc1)N(CC(F)(F)F)c1ccc(C(O)(C(F)(F)F)C(F)(F)F)cc1 [T0901317] (partner dose 1.4 µM)	100	88	76	79.4	102	96.1
CCCCCCCCCCCCCCCCCCOP(=O)([O-])OC1CC[N+](C)(C)CC1 [Perifosine] + Nc1ncn([C@H]2C[C@H](O)[C@@H](CO)O2)c(=O)n1 [decitabine] (partner dose 0.1 µM)	96.3	83.4	97	100	88.9	92.7
CCCCCCCCCCCCCCCCCCOP(=O)([O-])OC1CC[N+](C)(C)CC1 [Perifosine] + CN(C)S(=O)(=O)c1ccc2c(c1)/C(=C/c1cc3c([nH]1)CCCC3)C(=O)N2 [SU6656] (partner dose 0.4 µM)	74.2	109	104	82.3	117	74.4
Cn1sc(=O)n(Cc2ccccc2)c1=O + COc1ccc(Cl)c(Nc2nc3ccccc3nc2NS(=O)(=O)c2cccc(NC(=O)C(C)(C)N)c2)c1 [XL147] (partner dose 0.8 µM)	107	84.1	94.9	112	94.5	123
C[C@@H](N)c1ccc(C(=O)Nc2ccnc3[nH]ccc23)cc1 + CS(=O)(=O)c1ccc(C(=O)Nc2ccc(Cl)c(-c3ccccn3)c2)c(Cl)c1 [vismodegib] (partner dose 1 µM)	118	69.4	76	115	123	88
CCCCCCCCCCCCCCCCCCOP(=O)([O-])OC1CC[N+](C)(C)CC1 [Perifosine] + COc1ccc(Cl)c(Nc2nc3ccccc3nc2NS(=O)(=O)c2cccc(NC(=O)C(C)(C)N)c2)c1 [XL147] (partner dose 0.8 µM)	104	108	97.8	105	91.3	102
C[C@@H](N)c1ccc(C(=O)Nc2ccnc3[nH]ccc23)cc1 + Oc1cc(-c2nc(-c3ccccc3)[nH]c2-c2ccncc2)ccc1Cl [L779450] (partner dose 0.2 µM)	74.1	77.1	59.4	84.8	102	94.3
Cn1sc(=O)n(Cc2ccccc2)c1=O + Oc1nc(-c2ccc(C(F)(F)F)cc2)nc2c1CSCC2 [XAV939] (partner dose 2 µM)	90.9	58.4	92.8	85.4	95.4	98.3
C[C@@H](N)c1ccc(C(=O)Nc2ccnc3[nH]ccc23)cc1 + COc1ccc(C2=N[C@@H](c3ccc(Cl)cc3)[C@@H](c3ccc(Cl)cc3)N2C(=O)N2CCNC(=O)C2)c(OC(C)C)c1 [Nutlin-3] (partner dose 0.1 µM)	116	72	90.6	146	92.2	92.6
C[C@@H](N)c1ccc(C(=O)Nc2ccnc3[nH]ccc23)cc1 + CN1CCN(c2ccc3nc(-c4c(N)c5c(F)cccc5[nH]c4=O)[nH]c3c2)CC1 [Dovitinib] (partner dose 0.1 µM)	122	81.8	64.5	101	82.7	104
C[C@@H](N)c1ccc(C(=O)Nc2ccnc3[nH]ccc23)cc1 + CCN(CC)CCCCNc1ncc2cc(-c3cc(OC)cc(OC)c3)c(NC(=O)NC(C)(C)C)nc2n1 [PD173074] (partner dose 0.1 µM)	119	77.1	86.7	117	103	87
C[C@@H](N)c1ccc(C(=O)Nc2ccnc3[nH]ccc23)cc1 + CC1(C)NC(=O)N(c2ccc([N+](=O)[O-])c(C(F)(F)F)c2)C1=O [nilutamide] (partner dose 1 µM)	110	76.5	87.9	118	98.9	90
C[C@@H](N)c1ccc(C(=O)Nc2ccnc3[nH]ccc23)cc1 + NC1(c2ccc(-c3nc4ccn5c(=O)[nH]nc5c4cc3-c3ccccc3)cc2)CCC1 [MK2206] (partner dose 0.4 µM)	89	51.1	72.9	79.4	86.1	86.5
CCCCCCCCCCCCCCCCCCOP(=O)([O-])OC1CC[N+](C)(C)CC1 [Perifosine] + Nc1nc(F)nc2c1ncn2[C@@H]1O[C@H](CO)[C@@H](O)[C@@H]1O [fludarabine] (partner dose 0.2 µM)	97.5	92.4	87.6	36.4	89.2	50
C[C@@H](N)c1ccc(C(=O)Nc2ccnc3[nH]ccc23)cc1 + COc1ccc2c(c1)CCC1C2CCC2(C)C(NCCCCCCN3C(=O)C=CC3=O)CCC12 [U73122] (partner dose 0.4 µM)	120	76.2	80.3	79.7	67.5	105
Cn1sc(=O)n(Cc2ccccc2)c1=O + CN(c1ncccc1CNc1nc(Nc2ccc3c(c2)CC(=O)N3)ncc1C(F)(F)F)S(C)(=O)=O [PF562271] (partner dose 0.08 µM)	80.9	73.1	87.6	104	92.9	94.2
CCCCCCCCCCCCCCCCCCOP(=O)([O-])OC1CC[N+](C)(C)CC1 [Perifosine] + COc1cc2c(Oc3ccc4[nH]c(C)cc4c3F)ncnc2cc1OCCCN1CCCC1 [cediranib] (partner dose 0.4 µM)	114	128	104	90.1	119	106
Cn1sc(=O)n(Cc2ccccc2)c1=O + O=C1NC(=O)/C(=C/c2ccc(-c3ccc(F)cc3O)o2)S1 [AS252424] (partner dose 1 µM)	101	102	85.7	90.6	93.9	104
Cn1sc(=O)n(Cc2ccccc2)c1=O + CO[C@@H]1[C@H](N(C)C(=O)c2ccccc2)C[C@H]2O[C@]1(C)n1c3ccccc3c3c4c(c5c6ccccc6n2c5c31)C(=O)NC4 [Midostaurin] (partner dose 0.08 µM)	85.8	75.8	90.8	72	85.8	97.9
